Laboratory results published in PubChem BioAssay AID1347055 (National Center for Advancing Translational Sciences (NCATS), 2019).
About 120 (0.22%) of roughly 54,000 compounds were called active. Inconclusive means that the source gave no clear call. Such entries were picked first, then a sample of the others. The call rests on the fitted dose curve; in most records, active means well fitted inhibition curve with a large enough effect; inconclusive means small, poorly fitted or top-dose-only effect, or effect the other way; inactive means flat fitted curve, though single readings scatter. No potency is given beside an inconclusive call; the fits are too rough.

These compounds were tested against Fumarate hydratase, mitochondrial (Homo sapiens) (UniProt P07954) (assay: Identification of activators of human fumarate hydratase by quantitative high-throughput screening). Conditions: FH coupled MDH/diaphorase resazurin fluorescence, 15 min; activity change, negative = inhibition: at 79.9 µM (top of the series).
Further: the screen sought activators but most active calls are inhibition curves; nearly all actives have a fitted effect of over 45% in size.
On the % scale 0 is the no-effect control and ±100 the full control effect; potency means the concentration at half of the fitted maximal effect; tags describe the fitted curve by direction and shape.

Sequence of UniProt P07954 (P07954 whole entry, looked up): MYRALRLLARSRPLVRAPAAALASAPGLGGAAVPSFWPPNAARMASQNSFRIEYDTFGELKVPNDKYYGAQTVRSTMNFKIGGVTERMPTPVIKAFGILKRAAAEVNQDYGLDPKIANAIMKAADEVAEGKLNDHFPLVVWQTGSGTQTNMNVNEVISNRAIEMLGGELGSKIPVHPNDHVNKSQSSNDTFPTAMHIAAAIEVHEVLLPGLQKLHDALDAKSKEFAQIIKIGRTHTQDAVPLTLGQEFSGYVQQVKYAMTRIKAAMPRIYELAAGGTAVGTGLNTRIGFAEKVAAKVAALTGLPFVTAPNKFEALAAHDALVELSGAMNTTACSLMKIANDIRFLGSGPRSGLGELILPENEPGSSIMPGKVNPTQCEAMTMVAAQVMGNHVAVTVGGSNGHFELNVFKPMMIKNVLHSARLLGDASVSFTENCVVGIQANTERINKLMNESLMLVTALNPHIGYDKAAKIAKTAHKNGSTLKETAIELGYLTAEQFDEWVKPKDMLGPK

Structure (SMILES) | Potency | activity change, negative = inhibition
COc1ccc(NC(=O)CSCc2cnn(-c3ccccc3)c2-n2cccc2)cc1 | inconclusive [inhibitor, partial curve, poor fit] | 
COc1cc(OC)cc(C(=O)NCC(c2cccs2)S(=O)(=O)c2ccc(F)c(C)c2)c1 (stereo not given) |  | inactive: 1.44%
Cc1ccc(N2C(=O)c3[nH]nc(-c4ccc(Cl)cc4)c3C2c2ccc(F)cc2)cc1 (stereo not given) | inconclusive [inhibitor, partial curve, poor fit] | 
O=C(NCc1ccc(Oc2ccccc2)cc1)c1nc(-c2cc(Br)c(O)c(Br)c2)no1 | inconclusive [inhibitor, single point] | 
O=C(Cn1cc(SCc2ccc(C(F)(F)F)cc2)c2ccccc21)N1CCCC1 | inconclusive [inhibitor, single point] | 
COc1ccc(NC(=O)CSc2oc(-c3ccco3)nc2S(=O)(=O)c2ccc(Br)cc2)c(OC)c1 | inconclusive [inhibitor, full curve] | 
CC(=O)c1ccc(NC(=O)CSc2cn(CC(=O)N3CCCCCC3)c3ccccc23)cc1 | inconclusive [inhibitor, partial curve] | 
COc1cc(NC(=O)CSc2nc(-c3ccc(C)cc3)nc3c2Cc2ccccc2O3)cc(OC)c1 |  | inactive: -10.7%
CC1CCN(S(=O)(=O)c2ccc(C(=O)Nc3sc4c(c3C(N)=O)CC(C)(C)NC4(C)C)cc2)CC1 |  | inactive: -3.05%
CNC(=O)c1ccc(Nc2nnc(-c3ccc(C)c(S(=O)(=O)N(C)C)c3)c3ccccc23)cc1 | inconclusive [inhibitor, partial curve, poor fit] | 
Cc1cc(C)cc(OCCCn2c(CCNC(=O)C3CCCCC3)nc3ccccc32)c1 | inconclusive [inhibitor, partial curve, poor fit] | 
Cc1cccn2c(=O)c3cc(C(=O)NCc4ccccc4)c(=N)n(CCOCCO)c3nc12 |  | inactive: -0.0811%
COc1ccc2c(c1)CCc1c(C(=O)Nc3c(C)nn(Cc4ccc(Cl)c(Cl)c4)c3C)noc1-2 | inconclusive [inhibitor, partial curve, poor fit] | 
Cc1nc2nc(SCC(=O)NCCc3ccc(Cl)cc3)nn2c(C)c1Cc1ccccc1 | inconclusive [inhibitor, partial curve, poor fit] | 
O=C(NCc1cccnc1)C1CCN(Cc2cc3ccccc3n2Cc2cccc(Cl)c2)CC1 | inconclusive [inhibitor, single point] | 
O=C(Nc1cccc(C(=O)N2CCN(c3ccc(Cl)cc3)CC2)c1)c1nsc2ccccc12 | inconclusive [inhibitor, partial curve] | 
O=C(OCc1cc(=O)n2nc(C3CC3)sc2n1)c1ccc(F)cc1 | inconclusive [activator, single point] | 
COc1ccc(/C=C/c2nc(C#N)c(NCCc3ccc(OC)c(OC)c3)o2)cc1OC | inconclusive [inhibitor, partial curve, poor fit] | 
Cn1c(SCC(=O)N2CCC[C@H]2C(=O)Nc2ccccc2-c2ccccc2)nc2ccccc21 |  | inactive: 0.115%
O=S(=O)(c1ccccc1)n1nc(-c2ccccc2)nc1NCc1ccc(Cl)cc1 |  | inactive: -30.5%

Structure (SMILES) | Potency | activity change, negative = inhibition
Cc1cccc(NC(=O)N2CCc3c(sc4c3CCCC4)C2c2ccc(F)cc2)c1 (stereo not given) |  | inactive: -7.56%
CC(C)CN1CCc2nc(N3CCN(c4ncccn4)CC3)ncc2C1 |  | inactive: -7.33%
COc1ccccc1NC(=O)Cc1c(C(=O)O)[nH]c2ccc(Cl)cc12 | inconclusive [inhibitor, partial curve] | 
COCc1cc(C)nc2sc3c(c12)NC(c1ccc(O)cc1)N(c1ccc(OC)cc1)C3=O (stereo not given) | inconclusive [inhibitor, partial curve, poor fit] | 
Cc1cc(C)n2nc(SCC(=O)Nc3ccccc3)nc2n1 |  | inactive: -13.1%
Cc1oc(-c2ccc(Cl)cc2)nc1CS(=O)CC(=O)NCc1ccc(Cl)cc1 (stereo not given) |  | inactive: -11.3%
CCc1ccc(NC(=O)CSc2nc3n[nH]c(C)c3c(=N)n2-c2ccccc2C)cc1 |  | inactive: -0.694%
COc1cccc(C(=O)Nc2ccccc2OCc2cc(=O)n3cc(C)ccc3n2)c1 |  | inactive: 2.48%
C[C@@]1(O)[C@H](O)[C@@H](CO)O[C@H]1n1ccc(N)nc1=O | inconclusive [activator, single point] | 
COc1ccc(C(=O)n2nc(-c3ccco3)nc2NCc2cccs2)cc1 | inconclusive [inhibitor, single point] | 
COc1ccc(Cn2c(C(=O)O)c(CNC3CCCCCC3)c3ccc(OC)cc32)cc1 | inconclusive [inhibitor, partial curve] | 
CCCOc1ccc(-c2nn(-c3ccccc3)cc2C2NC(=O)NC(C)=C2C(=O)OC)cc1C (stereo not given) | inconclusive [inhibitor, partial curve, poor fit] | 
CC(C)CCN(Cc1ccco1)C(=O)c1cc2c(Cl)nc3ccccc3c2s1 | inconclusive [inhibitor, partial curve, poor fit] | 
c1ccc2c(-c3cnn4cc(-c5ccc(N6CCNCC6)cc5)cnc34)ccnc2c1 |  | inactive: -2.4% [at 53.3 µM]
COc1cc(C(=O)Nc2ccc3oc(-c4ccccc4)nc3c2)cc(OC)c1OC | inconclusive [inhibitor, partial curve] | 
COc1cc(Cl)c(C)cc1NC(=O)CSc1ncc(S(=O)(=O)c2ccc(C(C)(C)C)cc2)c(=O)[nH]1 | inconclusive [inhibitor, partial curve] | 
Cn1c2ccccc2c2c(C(=O)N3CCN(c4ccc(F)cc4)CC3)cn(C3CCCCC3)c(=O)c21 | inconclusive [inhibitor, partial curve, poor fit] | 
O=C1Nc2ccc(S(=O)(=O)Nc3ccccc3O)c3cccc1c23 | inconclusive [inhibitor, partial curve] | 
Cc1ccccc1Nc1c(-c2ccc(N3CCOCC3)cc2)nc2ncccn12 |  | inactive: -14.2%
COC(=O)c1scc(-c2ccccc2)c1S(=O)(=O)Nc1cccc(C)c1C | inconclusive [inhibitor, partial curve, poor fit] | 
